# In the supplement of paper PMC12217912:
# The other results are listed elsewhere or left out. Sequences were assembled here from the parent chain. Values near 0.05 are background.
# B1: TEV protease; numbered along this chain (parent)
# chain: MGESLFKGPRDYNPISSSICHLTNESDGHTTSLYGIGFGPFIITNKHLFRRNNGTLVVQSLHGVFKVKDTTTLQQHLVDGRDMIIIRMPKDFPPFPQKLKFREPQREERICLVTTNFQTKSMSSMVSDTSCTFPSGDGIFWKHWIQTKDGQCGSPLVSTRDGFIVGIHSASNFTNTNNYFTSVPKNFMELLTNQEAQQWVSGWRLNADSVLWGGHKVFMVKPEEPFQPVKEATQL
# Variants of: B1
# Experiment: raw area under fraction-flipped curve 0-4 h after induction (AUC4h, not background-subtracted), DNA-recorder readout of cleavage of the substrate (dimensionless); higher = more cleavage of the substrate by the protease variant
# Details: temperature: 34 °C; time window: 0-4 h after rhamnose induction
# Procedure: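 In vivo DNA recorder in E. coli TOP10(DE3) ΔrhaA at 34 °C. Each TEVp single-site mutant (parent TEVp 0) is paired with a single-site variant of the 7-mer TEVs (canonical ENLYFQ|S). The substrate sits between flexible linkers in a Bxb1-sfGFP-TEVs-SsrA fusion, so cleavage stabilises Bxb1 and speeds flipping of a recombination array, read by NGS. The value is the raw area under the fraction-flipped curve over 0-4 h after rhamnose induction (AUC4h), with ≥20 reads per time point. It is not background-subtracted; inactive controls average about 0.047.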
# 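Note: Bxb1 expression induced with 0.2% (w/v) L-rhamnose at OD600 near 0.5, cultures sampled hourly, flipped fraction per protease–substrate barcode pair counted by paired-end Illumina sequencing.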
Variant,area with substrate CNLYFQS,area with substrate FNLYFQS,area with substrate GNLYFQS,area with substrate HNLYFQS,area with substrate INLYFQS,area with substrate LNLYFQS,area with substrate MNLYFQS,area with substrate NNLYFQS,area with substrate SNLYFQS,area with substrate TNLYFQS
E107F,0.0648,0.118,0.0711,0.0398,0.0536,0.0567,0.0604,0.0613,0.0616,0.0689
K7P,0.0562,,0.0601,0.0656,0.0651,,0.0589,0.075,0.0701,0.0756
K7I,0.0639,,,,,0.0576,0.0762,,,0.0606
K7E,0.0529,,,,,,,,,0.0763
R87G,0.0635,0.0562,,0.0588,0.0381,,,,,0.0576
R87K,0.0602,0.0491,,0.0661,0.0562,0.0699,,0.0775,0.0473,
R87W,0.0678,0.0266,,,0.0419,,,,0.0476,0.0649
K66T,0.0636,0.0864,0.0737,0.0539,0.0663,0.0709,0.0562,,0.0634,
F41K,0.0492,0.0683,0.0541,0.0419,,0.0646,0.0438,,,0.066
F101Y,0.0624,0.0642,,,0.0504,0.0524,,,,0.0584
F101D,0.0467,,0.0476,0.065,,0.0488,,,,0.0564
M83V,0.0634,0.0633,,,,,,0.0661,0.0671,
M83Y,0.0622,,,,,0.0534,0.0473,,,0.0458
S121C,0.0664,0.0612,0.0512,,0.0853,,0.0617,0.0671,,0.0719
H62C,0.0691,0.0537,,0.0633,0.0564,0.0755,0.0604,0.0629,0.0609,0.0749
T119P,0.0732,0.0703,0.0597,0.0623,0.0414,,,0.0607,0.0651,0.081
F38D,0.039,,,,,,,,,
L73F,0.0543,,,0.0462,0.0687,0.0628,,,0.0579,0.0618
E103F,0.0643,0.0588,,0.0619,,0.0808,0.0853,,,
G35N,0.031,,,0.0337,,,,,,

# Same assay, conditions: temperature: 34 °C; time window: 0-4 h after rhamnose induction
Variant,area with substrate WNLYFQS,area with substrate QNLYFQS,area with substrate VNLYFQS,area with substrate YNLYFQS,area with substrate RNLYFQS,area with substrate KNLYFQS,area with substrate PNLYFQS
E107F,0.0603,,,,,,
K7P,,0.0659,0.0393,0.0648,,,
K7I,0.0606,,0.0705,0.0743,,,
K7E,0.0629,,,,0.0713,,
R87G,,,,,,0.0685,
R87K,0.0569,,0.0642,,,,
R87W,0.0545,,0.0706,0.0558,,0.0382,0.0641
K66T,0.0591,,,,0.0721,,0.0631
F41K,0.0521,,0.0495,,,,0.0506
F101Y,0.0499,,,0.0655,,,
F101D,0.0429,,,,,,0.055
M83V,,,,,,0.0066,
M83Y,,,,,,,0.0667
S121C,0.0352,,0.0661,0.0711,,,0.0673
H62C,,0.0717,0.0588,0.0799,,0.0616,0.0622
T119P,,,0.0818,,0.0637,0.0885,
F38D,,,,,,,0.0487
L73F,0.0581,,,,0.0562,,0.0634
E103F,,0.0896,,,,,
G35N,,,,,0.0183,,
